± gives the standard deviation of the averaged measurements. The list shows a part of the results.

The source of these data is the supplement of paper PMC11417369.

In this test the test system is PfAP2-I AP2 domain 3 (GST-tagged). In words: gcPBM binding intensity (ln(normalized median fluorescence intensity)); higher = stronger DNA binding. The gist of the method: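 Alexa488 anti-GST antibody, scanned at 488 nm, detected GST-tagged P. falciparum DNA-binding domains that had been expressed in E. coli and incubated for 1 h on an Agilent 4 × 180k array. The array carried primer-extended double-stranded 36-bp intergenic genomic probes and negative controls. Binding intensity is the highest Masliner-normalised natural-log median intensity across replicate spots of either orientation of each probe.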
Consider “TATTTTTAAAAGTTAACAGAAAAAATATAAATAAAT [GTGCAC_negctrl_site295]”, for which the “gcPBM binding intensity (ln)” value was determined as 7.76 ± 0.61. As for “TGGTATATACGACACACACACATATGTATAAATATA [CACACA_site6561]”, the figure is 7.99 ± 0.54. In the case of “TTTTCCCTTTTTTCCGCACACAATAAAATAAATAAA [CACACA_site2807]” it was 8.66 ± 0.099; in that of “TACCATAATCAATGCACACATAACAAAATATTATTA [CACACA_site2722]”, 9.77 ± 0.47. For “TGTAATAAAATAATTAGTACACATATATGTATATTT [XGTACX_site5896]”, the “gcPBM binding intensity (ln)” value is 7.76 ± 0.41. “TTTATCATGAACAGAAGTACATTTATATCAATGTCT [XGTACX_site6470]”: the “gcPBM binding intensity (ln)” value was 7.5 ± 0.47.

As to “ATATATATATAATGTTGTACGTTTTATTCTCCCATT [XGTACX_site8071]”, the “gcPBM binding intensity (ln)” value was determined as 9.2 ± 0.3. Take “ATATATATATATTTTACACACAATGGAGAAAAAAAT [CACACA_site644]”: the “gcPBM binding intensity (ln)” value worked out at 9.01 ± 0.092. As for “TCATTATATTATTCTTGTACTTATATCCTTTTTTGA [XGTACX_site5320]”, the figure is 7.75 ± 0.59; as for “TAAAAGTTCACCTGTACACACATATATATCTGTACA [CACACA_site5019]”, 8.11 ± 0.56.

Take “AAAAAATAAAAGTGGGGTACATGTCATTATGTGCAT [XGTACX_site3753]”: the “gcPBM binding intensity (ln)” value amounted to 8.12 ± 0.64. In the case of CAAAATATTATCATGATGCACTTTACACTCTAAGGT it was 9.34 ± 0.18; in that of “TTTTCATTCTTTTCCTTTGATTTACAATAGTATATT [GTGCAC_negctrl_site687]”, 7.72 ± 0.79. As for “AAATTAAATGTAAGCACACATAAATTATACGCATAT [CACACA_site3335]”, the figure is 8.04 ± 0.54. In the case of “ACATTGAATAAATAATGTACATATATAATATATATT [XGTACX_site95]” it was 7.65 ± 0.35; in that of “TTGCAGTATTTCGGAACACACAAACATAAATATGTA [CACACA_site5307]”, 7.81 ± 0.37. Turning to “GATCTTTCACATATATATATAAAGGATATTATGGTA [CACACA_negctrl_site522]”, the “gcPBM binding intensity (ln)” value came out at 7.55 ± 0.57.

For “AGTAGTCTGGAGAAAAGTACACAGTATCTGGTAGCT [XGTACX_site2544]”, the “gcPBM binding intensity (ln)” value amounted to 7.84 ± 0.55. In the case of “TATAATAATCCACAAGCACACACACCCACATATATA [CACACA_site8343]” it was 8.31 ± 0.27; in that of “AAATATTATTCATTTTGTACGTATAATTTTTAATGA [XGTACX_site3509]”, 7.68 ± 0.5; in that of “TTATTACACAAATGGTGTACTTTTGAGGAACCAAAA [XGTACX_site4279]”, 7.94 ± 0.33. In the case of “ATTATATTATATTATACATGCATAATATTATATAAA [TGCATGCA_site647]” it was 7.8 ± 0.41; in that of “AATATATACATACATACATGCACATATATATATATA [TGCATGCA_site393]”, 9.16 ± 0.14; in that of “ATTTGTTTAAGTCACGAACACACATATATCATCAAT [CACACA_site985]”, 7.76 ± 0.6. On to “ATTATTTACCACAACACACAAATATTTACCAATCAT [CACACA_site5472]”, for which the “gcPBM binding intensity (ln)” value stood at 8.22 ± 0.52.
